{
  "source": "paper PMC4336329",
  "about": "(PLoS ONE, 2015)",
  "note": "Out of some 310,000 compounds screened, about 14,000 (4.5%) showed an effect of 50% or more. The effect is printed as a negative number. Some of the results follow.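 Also: peak tail current of the secondary pulse compared with the same well before compound.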",
  "data": [
    {"molecular_target": "human ether-à-go-go-related gene (hERG) potassium channel (human, UniProt Q12809)", "sequence (Q12809 whole entry, looked up)": "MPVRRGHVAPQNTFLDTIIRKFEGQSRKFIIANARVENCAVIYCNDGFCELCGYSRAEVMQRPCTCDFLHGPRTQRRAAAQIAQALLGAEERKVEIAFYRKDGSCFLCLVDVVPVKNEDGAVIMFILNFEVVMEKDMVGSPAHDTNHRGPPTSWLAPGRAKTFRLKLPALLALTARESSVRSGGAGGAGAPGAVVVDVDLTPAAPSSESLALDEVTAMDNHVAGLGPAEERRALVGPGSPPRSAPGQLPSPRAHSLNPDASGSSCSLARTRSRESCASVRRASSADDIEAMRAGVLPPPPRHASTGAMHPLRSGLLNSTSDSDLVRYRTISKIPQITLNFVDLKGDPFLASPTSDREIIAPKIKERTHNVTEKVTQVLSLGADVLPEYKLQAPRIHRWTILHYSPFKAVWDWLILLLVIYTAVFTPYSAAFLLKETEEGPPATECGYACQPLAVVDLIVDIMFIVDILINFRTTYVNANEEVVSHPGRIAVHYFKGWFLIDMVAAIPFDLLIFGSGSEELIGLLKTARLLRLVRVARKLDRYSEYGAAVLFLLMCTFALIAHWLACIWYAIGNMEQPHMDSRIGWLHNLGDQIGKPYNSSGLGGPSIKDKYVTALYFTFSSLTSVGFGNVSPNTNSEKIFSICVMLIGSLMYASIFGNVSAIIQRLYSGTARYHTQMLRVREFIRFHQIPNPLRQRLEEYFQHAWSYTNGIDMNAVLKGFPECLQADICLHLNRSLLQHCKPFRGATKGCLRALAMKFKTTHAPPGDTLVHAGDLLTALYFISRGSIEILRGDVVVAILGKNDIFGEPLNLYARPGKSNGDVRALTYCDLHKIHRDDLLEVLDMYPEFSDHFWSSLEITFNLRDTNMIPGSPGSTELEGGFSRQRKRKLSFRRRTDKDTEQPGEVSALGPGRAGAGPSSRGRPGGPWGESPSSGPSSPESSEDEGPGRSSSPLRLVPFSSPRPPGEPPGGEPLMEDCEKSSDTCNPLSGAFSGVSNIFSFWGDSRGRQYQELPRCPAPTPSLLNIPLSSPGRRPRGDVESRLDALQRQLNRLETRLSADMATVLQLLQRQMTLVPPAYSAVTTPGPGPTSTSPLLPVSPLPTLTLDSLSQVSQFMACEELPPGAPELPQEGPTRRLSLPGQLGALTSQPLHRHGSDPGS", "assay": "primary screen, population patch clamp on CHO cells stably expressing hERG", "units": {"hERG current change (%, negative = inhibition) at 10uM": "%"}, "values": [
      {"smiles": "C=CCNc1nnc(C)c2ccccc12", "hERG current change (%, negative = inhibition) at 10uM": 1.57},
      {"smiles": "N/C(=N\\OS(=O)(=O)c1ccccc1)c1ccccn1", "hERG current change (%, negative = inhibition) at 10uM": -24.1},
      {"smiles": "CN(Cc1ccccc1)C(=O)c1ccccc1-c1ccccc1", "hERG current change (%, negative = inhibition) at 10uM": -5.82},
      {"smiles": "O=C1C(Oc2ccc(Cl)cc2)C(c2ccc3c(c2)OCO3)N1CC1CCCO1", "note": "(stereo not drawn)", "hERG current change (%, negative = inhibition) at 10uM": -28.3},
      {"smiles": "CC(Sc1nnnn1C)C(=O)Nc1nc(-c2ccc(F)c(F)c2)cs1", "note": "(stereo not drawn)", "hERG current change (%, negative = inhibition) at 10uM": -41.7},
      {"smiles": "CCOc1ccccc1NC(=O)c1ccc(C(=O)Nc2ccccc2OCC)nc1", "hERG current change (%, negative = inhibition) at 10uM": 31.4},
      {"smiles": "Cn1nc(C(F)(F)F)c2cc(C(=O)Nc3ccc(Cl)cc3)sc21", "hERG current change (%, negative = inhibition) at 10uM": 11.8},
      {"smiles": "CCOc1ccccc1-c1nnc(SCC(=O)Nc2ccccc2)o1", "hERG current change (%, negative = inhibition) at 10uM": -30.2},
      {"smiles": "CCOc1ccc(S(=O)(=O)N(C)CC(=O)NCc2ccc3c(c2)OCO3)cc1", "hERG current change (%, negative = inhibition) at 10uM": -64.4},
      {"smiles": "CSc1nc(-c2ccccc2)nc(NC(=O)c2ccccc2)c1C(C)=O", "hERG current change (%, negative = inhibition) at 10uM": 29.8},
      {"smiles": "CCN(CC(=O)NC(c1ccccc1)c1ccccc1)Cc1nc2ccccc2c(=O)[nH]1", "hERG current change (%, negative = inhibition) at 10uM": -32.4},
      {"smiles": "Cl.c1ccc(C2CC2)c(OCC2=NCCN2)c1", "hERG current change (%, negative = inhibition) at 10uM": 12.4},
      {"smiles": "CCO[C@H]1OC(C(=O)N2CCN(C)CC2)=C[C@@H](c2csc3ccccc23)[C@@H]1CCCO", "hERG current change (%, negative = inhibition) at 10uM": -19.5},
      {"smiles": "O=C(NCc1ccccc1)c1nncc(-c2ccccc2)n1", "hERG current change (%, negative = inhibition) at 10uM": -4.37},
      {"smiles": "COC(=O)c1ccc(N2C(=O)CC(NCc3ccccc3)C2=O)cc1", "note": "(stereo not drawn)", "hERG current change (%, negative = inhibition) at 10uM": 8.14},
      {"smiles": "O=C(O)c1ccccc1C(=O)O", "hERG current change (%, negative = inhibition) at 10uM": -10.4},
      {"smiles": "COCCN(CC(=O)Nc1cccc(C)c1C)C(=O)c1cc2ccccc2cc1OC", "hERG current change (%, negative = inhibition) at 10uM": -26.7},
      {"smiles": "Br.C=CCn1c(C)csc1=Nc1ccc(C(=O)O)cc1", "hERG current change (%, negative = inhibition) at 10uM": 13.5},
      {"smiles": "O=C(N/N=C/c1ccccc1C(=O)O)c1ccncc1", "hERG current change (%, negative = inhibition) at 10uM": 18.3},
      {"smiles": "O=C(CSc1nnc(Cn2c(=O)sc3ccccc32)n1-c1ccccc1)NCc1ccco1", "hERG current change (%, negative = inhibition) at 10uM": -9.17},
      {"smiles": "C/C=C\\C(=O)Nc1cccc(C2=NOC3(C2)C[C@@H](C(N)=O)N(C(=O)CC(c2ccccc2)c2ccccc2)C3)c1", "note": "(stereo partly drawn)", "hERG current change (%, negative = inhibition) at 10uM": -5.69},
      {"smiles": "Cc1sc2ncn(CC(=O)NCCCN3CC(C)CC(C)C3)c(=O)c2c1S(=O)(=O)N1CC(C)CC(C)C1", "note": "(stereo not drawn)", "hERG current change (%, negative = inhibition) at 10uM": -32.1},
      {"smiles": "COC(=O)c1cc(NC(=O)Cn2c(=O)oc3ccccc32)cc(C(=O)OC)c1", "hERG current change (%, negative = inhibition) at 10uM": 12.4},
      {"smiles": "CC(C)(C)[C@H]1C=C(C(=O)Nc2ccccc2)O[C@@H](OCc2ccc(CO)cc2)C1", "hERG current change (%, negative = inhibition) at 10uM": -20.8}
    ]}
  ]
}
